From US11285169B2, “Methods for modulating chemotherapeutic cytotoxicity” (The United States of America, as represented by the …, priority 2013, dated 2022)
Counter-ions that a name gives are not always drawn. Like-named read-outs stand apart in the source and are kept apart here. Residues, ends and D or L forms follow the SMILES beside them.

Legend:
[1] = tested on: CD47 deficient (CD47 KO) Jurkat T cells; conditions: for AC50: read-out: AC50 (μM) CD47 KO, cell viability
WT Jurkat cells = conditions: for AC50: read-out: AC50 (μM) WT
[2] = CD47 KO Jurkat T cells, 48 hours, 10^-9 to 10^-4 M, CellTiter-Glo
[3] = WT Jurkat cells, 48 hours, 10^-9 to 10^-4 M, CellTiter-Glo
[4] = difference CD47 KO minus WT Jurkat cells, 48 hours
[5] = log AC50 difference CD47 KO minus WT
[6] = CD47 KO Jurkat T cells, 48 hours
[7] = WT Jurkat cells, cell viability, 48 hours

Row | Compound | Maximal Response CD47 KO (RLU) [1, 2] [RLU] | Maximal Response WT (RLU) (WT Jurkat cells; [3]) | Δ Maximal Response CD47KO-WT [1, 4] | also measured
1 | COc1c(C)c2c(c(O)c1C/C=C(\C)CCC(=O)OCCN1CCOCC1)C(=O)OC2 [Mycophenolate mofetil] | 71.329 | 19.156 |  | 
2 | C/C(=N\NC(=S)N1CCC1)c1ccccn1 [NSC319726] |  |  |  | Maximal Response CD47 KO (RLU) [1]: 47.192 RLU; Δ Maximal Response CD47KO-WT [1]: 37.314; Maximal Response WT (RLU) (WT Jurkat cells): 9.878 RLU
3 | O=c1c(-c2ccc(O)cc2)coc2cc(O[C@@H]3O[C@H](CO)[C@@H](O)[C@H](O)[C@H]3O)ccc12 [Daidzin] |  |  |  | Maximal Response CD47 KO (RLU) [1]: 144.949 RLU; Maximal Response WT (RLU) (WT Jurkat cells): 115.579 RLU
4 | C=CCc1cccc(/C=N/NC(=O)CN2CCN(Cc3ccccc3)CC2)c1O [PAC-1] | 41.834 | 10.752 | 31.082 | 
5 | CNC(=O)c1nn(C)c2c1C(C)(C)Cc1cnc(Nc3ccc(N4CCN(C)CC4)cc3)nc1-2 [Milciclib] | 34.643 | 3.772 |  | 
6 | COC(=O)[C@H](Cc1ccccc1)NC(=O)[C@@H](N)CC(=O)O [Aspartame] (H-Asp-Phe-OMe) | 127.356 | 103.971 |  | 
7 | COc1ccc(CCC(=O)c2c(O)cc(O[C@@H]3O[C@H](CO)[C@@H](O)[C@H](O)[C@H]3O[C@@H]3O[C@@H](C)[C@H](O)[C@@H](O)[C@H]3O)cc2O)cc1O [Neohesperidin dihydrochalcone] | 31.011 | 9.336 |  | 
8 | CC1CNc2c(cccc2S(=O)(=O)N[C@@H](CCCNC(=N)N)C(=O)N2CC[C@@H](C)C[C@@H]2C(=O)O)C1 (stereo partly shown) [Argatroban] | 92.128 | 64.584 |  | 
9 | C/C=C/C[C@@H](C)C(=O)[C@H]1C(=O)N[C@@H](C(C)C)C(=O)N(C)CC(=O)N(C)[C@@H](CC(C)C)C(=O)N[C@@H](C(C)C)C(=O)N(C)[C@@H](CC(C)C)C(=O)N[C@@H](C)C(=O)N[C@H](C)C(=O)N(C)[C@@H](CC(C)C)C(=O)N(C)[C@@H](CC(C)C)C(=O)N(C)[C@@H](C(C)C)C(=O)N1C [Valspodar] |  | 56.155 |  | 
10 | COc1ccc(/C=C\c2cc(OC)c(OC)c(OC)c2)cc1NC(=O)[C@@H](N)CO [Ombrabulin] | 38.265 | 9.585 |  | 
11 | Cc1ccc(C(=O)c2cc(O)c(O)c([N+](=O)[O-])c2)cc1 [Tolcapone] | 72.927 | 36.753 |  | 
12 | CC(C)[C@H](C(=O)Nc1ccc(C(=O)NO)cc1)c1ccccc1 [AR-42] |  |  |  | Δ LogAC50 CD47KO-WT [1, 5]: 0.5; AC50 [1, 6]: 0.935 µM; AC50 (WT Jurkat cells; [7]): 0.296 µM
13 | CCC(=O)NC[C@H](Cc1ccc(OCCc2nc(-c3ccccc3)oc2C)cc1)N/C(C)=C\C(=O)c1ccc(C(F)(F)F)cc1 [GW-6471] | 36.938 | 6.324 | 30.614 | 
14 | CC(C)(C)OC(=O)N[C@H]1CCCCC/C=C\[C@@H]2C[C@@]2(C(=O)NS(=O)(=O)C2CC2)NC(=O)[C@@H]2C[C@@H](OC(=O)N3Cc4cccc(F)c4C3)CN2C1=O [Danoprevir] | 101.689 | 75.521 |  | 
15 | Cc1ccccc1-n1c(Cn2cnc3c(N)ncnc32)nc2cccc(C)c2c1=O [IC-87114] | 35.263 | 4.013 | 31.25 | 
16 | Cc1cc(SCc2sc(-c3ccc(C(F)(F)F)cc3)nc2C)ccc1OCC(=O)O [GW-501516] | 97.955 | 75.948 | 22.007 | 
17 | CC(C)(O)c1cc2nc(-c3cnc(N)nc3)nc(N3CCOCC3)c2s1 [GNE-493] | 47.021 | 18.068 | 28.953 | 
18 | Cc1cc(C(C)Nc2ccccc2)c2nc(N3CCOCC3)cc(=O)n2c1 (stereo not shown) [TGX-221] | 40.352 | 17.942 | 22.41 | 
19 | Cc1ccc(CN2CCNCC2)cc1NC(=O)CNc1ccc(F)c(F)c1 [GW-791343] | 37.839 | 3.378 | 34.461 | 
20 | C/C=C/C/C=C/CCC(=O)[C@H]1O[C@H]1C(N)=O [Cerulenin] | 39.947 | 10.602 |  | 
21 | c1ccc(-c2oc3ncnc(NC[C@@H]4CCCO4)c3c2-c2ccccc2)cc1 [AIM-100] |  |  |  | Δ LogAC50 CD47KO-WT [1, 5]: 0.6; AC50 [1, 6]: 16.6 µM; AC50 (WT Jurkat cells; [7]): 4.18 µM
22 | CCS(=O)(=O)c1cccc(-c2cc(C(=O)NC3CCN(C)CC3)c(C)c3[nH]c4ncc(C)cc4c23)c1 [TAK-901] | 33.892 | 4.465 |  | 
23 | O=c1[nH]c2ccc(Cl)cc2c(N[C@@H]2CN3CCC2CC3)c1-c1nc2ccccc2[nH]1 [CHIR-124] |  |  |  | Δ LogAC50 CD47KO-WT [1]: 1.1; AC50 [1, 6]: 1.48 µM; AC50 (WT Jurkat cells): 0.118 µM
24 | CC[C@@]1(O)C(=O)OCc2c1cc1n(c2=O)Cc2cc3cc(O)ccc3nc2-1 [10-hydroxy-camptothecin] | 33.266 | 9.333 | 23.933 | cytotoxicity in CD47 deficient versus wild-type Jurkat cells (FIGS. 14, 15) ([1]; 48 hours, increasing concentrations): protected; Δ LogAC50 CD47KO-WT [1, 5]: 1.2; AC50 [1, 6]: 0.332 µM; AC50 (WT Jurkat cells; [7]): 0.0209 µM
25 | COc1cc(Oc2ccnc3cc(OC)c(OC)cc23)ccc1NC(=O)NC(C)c1nccs1 (stereo not shown) [KI-20227] | 42.569 | 12.143 | 30.426 | 
26 | CCCCOc1ccc(CC(=O)NO)cc1 [Bufexamac] | 80.782 | 34.171 |  | 
27 | O[C@@H](COc1cccc2ncccc12)CN1CCN([C@@H]2c3ccccc3[C@@H]3[C@H](c4ccccc42)C3(F)F)CC1 [Zosuquidar trihydrochloride] |  | 17.315 |  | 
28 | COc1cccc2c1C(=O)c1c(O)c3c(c(O)c1C2=O)C[C@@](O)(C(=O)CO)C[C@@H]3O[C@H]1C[C@H](N)[C@H](O)[C@H](C)O1 [Doxorubicin] | 61.232 |  |  | 
29 | COC(=O)C1=C(C)NC(C)=C(C(=O)OCCCN2CCC(c3ccccc3)(c3ccccc3)CC2)[C@H]1c1cccc([N+](=O)[O-])c1 [Niguldipine] |  |  |  | Maximal Response WT (RLU) (WT Jurkat cells): 102.048 RLU
30 | AZD-5363 |  |  |  | Maximal Response WT (RLU) (WT Jurkat cells): 1.231 RLU; AC50 (WT Jurkat cells): 0.166 µM
